Here are results for 49 molecules from PubChem BioAssay AID1508623 (National Center for Advancing Translational Sciences (NCATS), 2021).

Molecules are shown by their SMILES. Among all 48,000 compounds or so, about 450 (0.94%) were called active. Not shown: some 19% with an inconclusive outcome. Calls come from the whole dose curve; as a rule, active = well fitted inhibition curve with a large enough effect; inconclusive = small, poorly fitted or top-dose-only effect; inactive = no such curve, though single readings can be large or run the other way. Some of the results follow.

A short description of this assay: Primary qHTS for Identification of Small Molecule Inhibitors of Huntingtin Promoter Activity. Note: nearly all actives have a fitted effect of over 50% in size. The settings on record: HEK293 HTT promoter firefly luciferase reporter (activity 0% = vehicle and -100% = no light), 24 h; series mostly up to 57.5 µM; activity change, negative = inhibition: at the top concentration. The gist of the method:
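Quantitative HTS used concentration series of up to 57.5 uM final on HEK293 luciferase reporter cells, 24 h at 37 degrees C. Readout was Dual-Glo firefly luminescence.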
(In general: In qHTS, concentration-response curves come from the screen itself.)
As for `Nc1ncnc2c1c(-c1cccc(OCc3ccccc3)c1)cn2C1CC(CN2CCCC2)C1` (centres undefined), the “activity change, negative = inhibition” value was inactive: -27.4%.

On to `Cc1ccc(-c2nc3ccc(Cl)cn3c2Nc2ccc3c(c2)OCCO3)s1`, for which the “activity change, negative = inhibition” value is inactive: 36.4%. For `COc1ccc(CNC(=O)CN2C(=O)CCCc3ccccc32)cc1` the value was inactive: 20.4%; for `CCN(CC)S(=O)(=O)c1ccc2oc(C(=O)Nc3ccc(Br)cc3F)c(C)c2c1`, inactive: -14.1%. Take `COc1ccc(CCNC(=O)CCc2c(C)c3cc4c(C)c(C)oc4cc3oc2=O)cc1`: the “activity change, negative = inhibition” value is inactive: 1.29%. Under `COc1ccc(NC(=O)CC(C)n2nc(C)cc2C)cc1Cl` (centres undefined) stands inactive: -4.24%; under `CCOc1ccc(CCNC(=O)Cn2ncn3c(cc4ccccc43)c2=O)cc1OCC`, inactive: -4.66%. For `CCn1c(C(=O)Nc2cc(Cl)ccc2C)cc2sc(Cl)cc21`, the “activity change, negative = inhibition” value was inactive: -29.6%. Under `Cc1cccc(-n2ccnc2SCC(=O)Nc2nc3ccccc3s2)c1` stands inactive: -5.15%; under `CCOC(=O)C(=O)Nc1c(C(=O)Nc2cccc(F)c2)oc2ccccc12`, inactive: -1.46%.

For the molecule `COc1ccccc1N1CCN(c2nc3c(S(=O)(=O)c4ccc(C)c(C)c4)nnn3c3ccc(Cl)cc23)CC1`, the “activity change, negative = inhibition” value was inactive: -8%. Under `CCN(CCCNC(=O)c1nn(-c2ccc(OC)c(Cl)c2)c(=O)c2c1c1ccccc1n2C)c1cccc(C)c1` stands inactive: -15.9%.

Turning to `Cc1cccc(-c2nc(SCC(=O)NCc3ccco3)c3c(=O)n(C)c(=O)n(C)c3n2)c1`, the “activity change, negative = inhibition” value was inactive: -1.34%. For `Cc1ccc(Cn2c(CNS(=O)(=O)c3ccc(Cl)s3)nc3cccnc32)cc1` the value was inactive: -2.06%; for `CCc1ccccc1Nc1cc(C(=O)NC2CCC(C)CC2)c2ccccc2n1` (centres undefined), inactive: 39%.

Turning to `CCc1c(C)sc(NC(=O)C2c3ccccc3Oc3ccccc32)c1C(=O)OC(C)C`, the “activity change, negative = inhibition” value is inactive: -4.17%. For `CN(C)c1ccc(C2Nc3ccc4ccccc4c3C3=C2C(=O)CC(C)(C)C3)cc1Br` (centres undefined), the “activity change, negative = inhibition” value is inactive: -12.5%. On to `COc1ccc(CNC(=O)c2cc(-c3ccc(C)c(C)c3)n[nH]2)cc1`, for which the “activity change, negative = inhibition” value is inactive: 51.3%. Under `CCOC(=O)c1cccc(NC(=O)C2CCCN(c3nnc(C)c4c(C)n(-c5ccccc5)nc34)C2)c1` (centres undefined) stands inactive: -3.36%.

For the molecule `COc1ccc(OC)c(C2C(C(=O)Nc3ccccc3OC)=C(C)Nc3c(C(=O)Nc4ccc(F)cc4)cnn32)c1` (centres undefined), the “activity change, negative = inhibition” value was inactive: -16.1%.

For `Cc1ccc(-c2nnc3ccccc3c2C(=O)Nc2cccc(Cl)c2)cc1`, the “activity change, negative = inhibition” value was inactive: 10.4%. For the molecule `Cn1c(=O)c(=O)n(C)c2cc(N3CCOCC3)c(NS(=O)(=O)c3ccc(F)c(Cl)c3)cc21`, the “activity change, negative = inhibition” value is inactive: -8.73%. `COc1ccc(NC(=O)c2cc3cc(C)ccc3n2C)cc1`: the “activity change, negative = inhibition” value was inactive: 3.13%.

Consider `CC(C)(C)OC(=O)N1CCC(c2c(C(=O)NCc3ccc4c(c3)OCO4)cnn2-c2ccccc2Cl)CC1`, for which the “activity change, negative = inhibition” value is inactive: 1.95%.

For the molecule `COc1ccc(C(=O)Nc2nnc(S(=O)(=O)N(CC(C)C)c3ccccc3)s2)cc1`, the “activity change, negative = inhibition” value was inactive: -5.88%.

As for `COc1ccc(NC(=O)c2ccc3c(c2)nnn3C2CCCC2)cc1Cl`, the “activity change, negative = inhibition” value was inactive: -15.4%.

For the molecule `Cc1ccc(Cl)cc1NC(=O)c1ccc2snnc2c1`, the “activity change, negative = inhibition” value was inactive: -10.3%. For `COc1cc(NC(=O)NCCn2nnc3cc(S(=O)(=O)N(C)C)ccc32)cc(OC)c1` the value was inactive: -6.43%. On to `CC1=C(C(N)=O)C(c2ccc(F)cc2)n2nc(-c3ccc(N(C)C)cc3)nc2N1` (centres undefined), for which the “activity change, negative = inhibition” value is inactive: -15.2%. As for `CNS(=O)(=O)c1cn(CC(=O)Nc2ccc(C)c(N(C)C)c2)cc1S(=O)(=O)NC`, the “activity change, negative = inhibition” value is inactive: 7.6%.

For the molecule `Cc1ccc2c(=O)c(C(=O)c3ccc(F)cc3)cn(CC(=O)NCc3ccccc3Cl)c2n1`, the “activity change, negative = inhibition” value is inactive: 1.09%. As for `Cc1ccc(-c2nn(CC(=O)NC3CCCCC3)c3c2cnc2ccccc23)cc1`, the “activity change, negative = inhibition” value is inactive: 0%. Take `Oc1ccc(C(O)CNCCCCCCNCC(O)c2ccc(O)c(O)c2)cc1O` (centres undefined): the “activity change, negative = inhibition” value was inactive: -5.64%. On to `CCCCCc1ccc(-c2ccc(C(=O)Oc3ccc(C(=O)OC)cc3)cc2)nc1`, for which the “activity change, negative = inhibition” value is inactive: -29.3%. Consider `COc1ccc(CNc2nc(-c3ccc(Cl)cc3)nn2C(=O)c2ccccc2)cc1`, for which the “activity change, negative = inhibition” value is inactive: -2.17%. As for `COc1ccccc1CNC(=O)c1ccc(CSc2nc3ccncc3n2Cc2ccccc2C)cc1`, the “activity change, negative = inhibition” value is inactive: -33.6%. For the molecule `Cc1ccc(S(=O)(=O)C2(C(=O)Nc3ccc(C(C)C)cc3)CC2)cc1`, the “activity change, negative = inhibition” value was inactive: 50.1%. In the case of `Cc1ccc(-n2ncc(C(=O)N3CCN(c4ncccn4)CC3)c2C2CCN(C(=O)OC(C)(C)C)CC2)cc1`, the “activity change, negative = inhibition” value was inactive: 1.55%. Turning to `Cc1cc(C)cc(N2C(=O)CS(=O)(=O)C23C(=O)N(C)c2ccccc23)c1` (centres undefined), the “activity change, negative = inhibition” value is inactive: -9.52%. `Cc1nc(-c2ccc(S(=O)(=O)N(C)Cc3ccccc3)cc2)co1`: the “activity change, negative = inhibition” value was inactive: -3.87%. Under `CCn1c2ccccc2c2nnc(N3CCN(c4ccc(OC)cc4)CC3)nc21` stands inactive: 5.1%; under `CCOC(=O)Cn1nc(C)c(NC(=O)COc2ccc(C)c(C)c2)c1C`, inactive: 16.6%. Take `CCN(CC)C(=O)CSc1cn(CC(=O)N2CCCCCC2)c2ccccc12`: the “activity change, negative = inhibition” value is inactive: -8.1%.

As to `Cc1ccc(NC(=O)C2CCN(c3nc4ccccc4nc3C(F)(F)F)CC2)cc1C`, the “activity change, negative = inhibition” value is inactive: -9.74%. For the molecule `CCCN(CCC)S(=O)(=O)c1ccc(N2CCCCS2(=O)=O)cc1`, the “activity change, negative = inhibition” value is inactive: -23.1%. With `COc1cc2ncnc(Nc3cc(Br)c(O)c(Br)c3)c2cc1OC`, the “activity change, negative = inhibition” value is inactive: -20.4%. For `Fc1ccc([C@@H]2Nc3ccccc3[C@@H]3C=CC[C@@H]32)cc1`, the “activity change, negative = inhibition” value was inactive: -22.3%. `Cc1ccc(C)c(NC(=O)CSc2ncc3c(n2)-c2ccccc2N(Cc2ccccc2C)S3(=O)=O)c1`: the “activity change, negative = inhibition” value is inactive: -14.2%. As for `COc1ccc(/C=C/c2nc(C#N)c(N3CCCCCC3)o2)cc1OC`, the “activity change, negative = inhibition” value was inactive: -15.7%.
